{"source": "patent US20240392031A1", "about": "(BICARA THERAPEUTICS, published 2024)", "binders": {"B1": {"name": "BCA330.16, anti-hCAIX hIL-12 fusion protein (hIL-12p40 variant N: W37A, F82A, K217A) (other)", "heavy 1": "EVRLVESGGGLVKPGGSLRLSCAASGFTFSNYYMSWIRQAPEKRLELVSAINSDGGITYYLDTVKGRFTISRDNAKNSLYLQMNSLRAEDTALFYCARHRSGYFSMDYWGQGTSVTVSS[human IgG1 constant region with changes left out here]GGGGSGGGGSGGGGSIWELKKDVYVVELDAYPDAPGEMVVLTCDTPEEDGITWTLDQSSEVLGSGKTLTIQVKEAGDAGQYTCHKGGEVLSHSLLLLHKKEDGIWSTDILKDQKEPKNKTFLRCEAKNYSGRFTCWWLTTISTDLTFSVKSSRGSSDPQGVTCGAATLSAERVRGDNKEYEYSVECQEDSACPAAEESLPIEVMVDAVHALKYENYTSSFFIRDIIKPDPPKNLQLKPLKNSRQVEVSWEYPDTWSTPHSYFSLTFCVQVQGKSKREKKDRVFTDKTSATVICRKNASISVRAQDRYYSSSWSEWASVPCS", "heavy 2": "EVRLVESGGGLVKPGGSLRLSCAASGFTFSNYYMSWIRQAPEKRLELVSAINSDGGITYYLDTVKGRFTISRDNAKNSLYLQMNSLRAEDTALFYCARHRSGYFSMDYWGQGTSVTVSSASTKGPSVFPLAPSSKSTSGGTAALGCLVKDYFPEPVTVSWNSGALTSGVHTFPAVLQSSGLYSLSSVVTVPSSSLGTQTYICNVNHKPSNTKVDKKV[human IgG1 Fc with changes left out here]GGGGSGGGGSGGGGSRNLPVATPDPGMFPCLHHSQNLLRAVSNMLQKARQTLEFYPCTSEEIDHEDITKDKTSTVEACLPLELTKNESCLNSRETSFITNGSCLASRKTSFMMALCLSSIYEDLKMYQVEFKTMNAKLLMDPKRQIFLDQNMLAVIDELMQALNFNSETVPQKSSLEEPDFYKTKIKLCILLHAFRIRAVTIDRVMSYLNAS", "light": "EIVMTQSPATLSVSPGERATLSCKASQNVVSAVAWYQQKPGQSPRLLIYSASNRYTGIPARFSGSGSGTEFTLTISSLQSEDFAAYYCQQYSNYPWTFGGGTKVEIKRTVAAPSVFIFPPSDEQLKSGTASVVCLLNNFYPREAKVQWKVDNALQSGNSQESVTEQDSKDSTYSLSSTLTLSKADYEKHKVYACEVTHQGLSSPVTKSFNRGEC"}, "B2": {"name": "BCA329.16, anti-hCAIX hIL-12 fusion protein (hIL-12p40 variant M: P39A, D40A, E81A, F82A) (other)", "heavy 1": "EVRLVESGGGLVKPGGSLRLSCAASGFTFSNYYMSWIRQAPEKRLELVSAINSDGGITYYLDTVKGRFTISRDNAKNSLYLQMNSLRAEDTALFYCARHRSGYFSMDYWGQGTSVTVSS[human IgG1 constant region with changes left out here]GGGGSGGGGSGGGGSIWELKKDVYVVELDWYAAAPGEMVVLTCDTPEEDGITWTLDQSSEVLGSGKTLTIQVKAAGDAGQYTCHKGGEVLSHSLLLLHKKEDGIWSTDILKDQKEPKNKTFLRCEAKNYSGRFTCWWLTTISTDLTFSVKSSRGSSDPQGVTCGAATLSAERVRGDNKEYEYSVECQEDSACPAAEESLPIEVMVDAVHKLKYENYTSSFFIRDIIKPDPPKNLQLKPLKNSRQVEVSWEYPDTWSTPHSYFSLTFCVQVQGKSKREKKDRVFTDKTSATVICRKNASISVRAQDRYYSSSWSEWASVPCS", "heavy 2": "EVRLVESGGGLVKPGGSLRLSCAASGFTFSNYYMSWIRQAPEKRLELVSAINSDGGITYYLDTVKGRFTISRDNAKNSLYLQMNSLRAEDTALFYCARHRSGYFSMDYWGQGTSVTVSSASTKGPSVFPLAPSSKSTSGGTAALGCLVKDYFPEPVTVSWNSGALTSGVHTFPAVLQSSGLYSLSSVVTVPSSSLGTQTYICNVNHKPSNTKVDKKV[human IgG1 Fc with changes left out here]GGGGSGGGGSGGGGSRNLPVATPDPGMFPCLHHSQNLLRAVSNMLQKARQTLEFYPCTSEEIDHEDITKDKTSTVEACLPLELTKNESCLNSRETSFITNGSCLASRKTSFMMALCLSSIYEDLKMYQVEFKTMNAKLLMDPKRQIFLDQNMLAVIDELMQALNFNSETVPQKSSLEEPDFYKTKIKLCILLHAFRIRAVTIDRVMSYLNAS", "light": "B1 light"}, "B3": {"name": "BCA321.16, anti-hCAIX hIL-12 fusion protein (hIL-12p40 variant H: K217 + L218 substituted with I) (other)", "heavy 1": "EVRLVESGGGLVKPGGSLRLSCAASGFTFSNYYMSWIRQAPEKRLELVSAINSDGGITYYLDTVKGRFTISRDNAKNSLYLQMNSLRAEDTALFYCARHRSGYFSMDYWGQGTSVTVSS[human IgG1 constant region with changes left out here]GGGGSGGGGSGGGGSIWELKKDVYVVELDWYPDAPGEMVVLTCDTPEEDGITWTLDQSSEVLGSGKTLTIQVKEFGDAGQYTCHKGGEVLSHSLLLLHKKEDGIWSTDILKDQKEPKNKTFLRCEAKNYSGRFTCWWLTTISTDLTFSVKSSRGSSDPQGVTCGAATLSAERVRGDNKEYEYSVECQEDSACPAAEESLPIEVMVDAVHIKYENYTSSFFIRDIIKPDPPKNLQLKPLKNSRQVEVSWEYPDTWSTPHSYFSLTFCVQVQGKSKREKKDRVFTDKTSATVICRKNASISVRAQDRYYSSSWSEWASVPCS", "heavy 2": "EVRLVESGGGLVKPGGSLRLSCAASGFTFSNYYMSWIRQAPEKRLELVSAINSDGGITYYLDTVKGRFTISRDNAKNSLYLQMNSLRAEDTALFYCARHRSGYFSMDYWGQGTSVTVSSASTKGPSVFPLAPSSKSTSGGTAALGCLVKDYFPEPVTVSWNSGALTSGVHTFPAVLQSSGLYSLSSVVTVPSSSLGTQTYICNVNHKPSNTKVDKKV[human IgG1 Fc with changes left out here]GGGGSGGGGSGGGGSRNLPVATPDPGMFPCLHHSQNLLRAVSNMLQKARQTLEFYPCTSEEIDHEDITKDKTSTVEACLPLELTKNESCLNSRETSFITNGSCLASRKTSFMMALCLSSIYEDLKMYQVEFKTMNAKLLMDPKRQIFLDQNMLAVIDELMQALNFNSETVPQKSSLEEPDFYKTKIKLCILLHAFRIRAVTIDRVMSYLNAS", "light": "B1 light"}, "B4": {"name": "BCA332.16, anti-hCAIX hIL-12 fusion protein (hIL-12p40 variant P: K106A, K217A, K219A) (other)", "heavy 1": "EVRLVESGGGLVKPGGSLRLSCAASGFTFSNYYMSWIRQAPEKRLELVSAINSDGGITYYLDTVKGRFTISRDNAKNSLYLQMNSLRAEDTALFYCARHRSGYFSMDYWGQGTSVTVSS[human IgG1 constant region with changes left out here]GGGGSGGGGSGGGGSIWELKKDVYVVELDWYPDAPGEMVVLTCDTPEEDGITWTLDQSSEVLGSGKTLTIQVKEFGDAGQYTCHKGGEVLSHSLLLLHAKEDGIWSTDILKDQKEPKNKTFLRCEAKNYSGRFTCWWLTTISTDLTFSVKSSRGSSDPQGVTCGAATLSAERVRGDNKEYEYSVECQEDSACPAAEESLPIEVMVDAVHALAYENYTSSFFIRDIIKPDPPKNLQLKPLKNSRQVEVSWEYPDTWSTPHSYFSLTFCVQVQGKSKREKKDRVFTDKTSATVICRKNASISVRAQDRYYSSSWSEWASVPCS", "heavy 2": "EVRLVESGGGLVKPGGSLRLSCAASGFTFSNYYMSWIRQAPEKRLELVSAINSDGGITYYLDTVKGRFTISRDNAKNSLYLQMNSLRAEDTALFYCARHRSGYFSMDYWGQGTSVTVSSASTKGPSVFPLAPSSKSTSGGTAALGCLVKDYFPEPVTVSWNSGALTSGVHTFPAVLQSSGLYSLSSVVTVPSSSLGTQTYICNVNHKPSNTKVDKKV[human IgG1 Fc with changes left out here]GGGGSGGGGSGGGGSRNLPVATPDPGMFPCLHHSQNLLRAVSNMLQKARQTLEFYPCTSEEIDHEDITKDKTSTVEACLPLELTKNESCLNSRETSFITNGSCLASRKTSFMMALCLSSIYEDLKMYQVEFKTMNAKLLMDPKRQIFLDQNMLAVIDELMQALNFNSETVPQKSSLEEPDFYKTKIKLCILLHAFRIRAVTIDRVMSYLNAS", "light": "B1 light"}, "B5": {"name": "BCA326.16, anti-hCAIX hIL-12 fusion protein (hIL-12p40 variant J: E81A, F82A) (other)", "heavy 1": "EVRLVESGGGLVKPGGSLRLSCAASGFTFSNYYMSWIRQAPEKRLELVSAINSDGGITYYLDTVKGRFTISRDNAKNSLYLQMNSLRAEDTALFYCARHRSGYFSMDYWGQGTSVTVSS[human IgG1 constant region with changes left out here]GGGGSGGGGSGGGGSIWELKKDVYVVELDWYPDAPGEMVVLTCDTPEEDGITWTLDQSSEVLGSGKTLTIQVKAAGDAGQYTCHKGGEVLSHSLLLLHKKEDGIWSTDILKDQKEPKNKTFLRCEAKNYSGRFTCWWLTTISTDLTFSVKSSRGSSDPQGVTCGAATLSAERVRGDNKEYEYSVECQEDSACPAAEESLPIEVMVDAVHKLKYENYTSSFFIRDIIKPDPPKNLQLKPLKNSRQVEVSWEYPDTWSTPHSYFSLTFCVQVQGKSKREKKDRVFTDKTSATVICRKNASISVRAQDRYYSSSWSEWASVPCS", "heavy 2": "EVRLVESGGGLVKPGGSLRLSCAASGFTFSNYYMSWIRQAPEKRLELVSAINSDGGITYYLDTVKGRFTISRDNAKNSLYLQMNSLRAEDTALFYCARHRSGYFSMDYWGQGTSVTVSSASTKGPSVFPLAPSSKSTSGGTAALGCLVKDYFPEPVTVSWNSGALTSGVHTFPAVLQSSGLYSLSSVVTVPSSSLGTQTYICNVNHKPSNTKVDKKV[human IgG1 Fc with changes left out here]GGGGSGGGGSGGGGSRNLPVATPDPGMFPCLHHSQNLLRAVSNMLQKARQTLEFYPCTSEEIDHEDITKDKTSTVEACLPLELTKNESCLNSRETSFITNGSCLASRKTSFMMALCLSSIYEDLKMYQVEFKTMNAKLLMDPKRQIFLDQNMLAVIDELMQALNFNSETVPQKSSLEEPDFYKTKIKLCILLHAFRIRAVTIDRVMSYLNAS", "light": "B1 light"}}}
{"molecular_target": "human IL-12 receptor (hIL-12R), heterodimer of hIL-12Rβ1 and hIL-12Rβ2 (human, UniProt P42701 24-662; Q99665 24-862)", "assay": "cell-based or functional assay", "units": {"HEK IL-12 Reporter Assay (Ratio of EC50)": "ratio", "PSTAT (CD8) flow cytometry - percent reduction at 16.9 nM": "%"}}
{"binder": "B1", "HEK IL-12 Reporter Assay (Ratio of EC50)": 107}
{"binder": "B2", "HEK IL-12 Reporter Assay (Ratio of EC50)": 4690, "PSTAT (CD8) flow cytometry - percent reduction at 16.9 nM": 72.9}
{"binder": "B3", "HEK IL-12 Reporter Assay (Ratio of EC50)": 6590, "PSTAT (CD8) flow cytometry - percent reduction at 16.9 nM": 93.9}
{"binder": "B4", "HEK IL-12 Reporter Assay (Ratio of EC50)": 141}
{"binder": "B5", "HEK IL-12 Reporter Assay (Ratio of EC50)": 374, "PSTAT (CD8) flow cytometry - percent reduction at 16.9 nM": 50.2}
